Experimental data published in patent US20120087858A1 (AbbVie / Abbott, published 2012).

How the values were obtained:
[1] = target: T1, Recombinant Human β-NGF (human, UniProt P01138 in part); assay: cell-based or functional assay
[2] = target: T2, Recombinant Human TNF-α/TNFSF1A (human, UniProt P01375 in part); assay: cell-based or functional assay
[3] = target: T1, Recombinant Human β-NGF; assay: Biacore SPR
Description: (§1) The BIACORE assay (Biacore, Inc, Piscataway, N.J.) determines the affinity of antibodies or DVD-Ig with kinetic measurements of on-rate and off-rate constants. Binding of antibodies or DVD-Ig to a target antigen (for example, a purified recombinant target antigen) is determined by surface plasmon resonance-based measurements with a Biacore® 1000 or 3000 instrument (Biacore® AB, Uppsala, Sweden) using running HBS-EP (10 mM HEPES [pH 7.4], 150 mM NaCl, 3 mM EDTA, and 0.005% surfactant P20) at 25° C. All chemicals are obtained from Biacore® AB (Uppsala, Sweden) or otherwise from a different source as described in the text. For example, approximately 5000 RU of goat anti-mouse IgG, (Fcγ), fragment specific polyclonal antibody (Pierce Biotechnology Inc, Rockford, Ill.) diluted in 10 mM sodium acetate (pH 4.5) is directly immobilized across a CMS research grade biosensor chip using a standard amine coupling kit according to manufacturer's instructions and procedures at 25 μg/ml. Unreacted moieties on the biosensor surface are blocked with ethanolamine. Modified carboxymethyl dextran surface in flowcell 2 and 4 is used as a reaction surface. Unmodified carboxymethyl dextran without goat anti-mouse IgG in flow cell 1 and 3 is used as the reference surface. For kinetic analysis, rate equations derived from the 1:1 Langmuir binding model are fitted simultaneously to association and dissociation phases of all eight injections (using global fit analysis) with the use of Biaevaluation 4.0.1 software. Purified antibodies or DVD-Ig are diluted in HEPES-buffered saline for capture across goat anti-mouse IgG specific reaction surfaces. Antibodies or DVD-Ig to be captured as a ligand (25 μg/ml) are injected over reaction matrices at a flow rate of 5 μl/min. The association and dissociation rate constants, kₒₙ (M⁻¹s⁻) and koff(s⁻¹) are determined under a continuous flow rate of 25 μl/min. Rate constants are derived by making kinetic binding measurements at different antigen concentrations ranging from 10-200 nM. The equilibrium dissociation constant (M) of the reaction between antibodies or DVD-Igs and the target antigen is then calculated from the kinetic rate constants by the following formula: KD=koff/kₒₙ. Binding is recorded as a function of time and kinetic rate constants are calculated.

[4] = target: T2, Recombinant Human TNF-α/TNFSF1A; assay: Biacore SPR
Description: as §1

T1 sequence (P01138 122-241 limits assumed): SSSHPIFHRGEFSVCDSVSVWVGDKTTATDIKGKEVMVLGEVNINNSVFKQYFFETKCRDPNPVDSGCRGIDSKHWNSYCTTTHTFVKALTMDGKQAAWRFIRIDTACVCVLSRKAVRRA
T2 sequence (P01375 77-233 limits assumed): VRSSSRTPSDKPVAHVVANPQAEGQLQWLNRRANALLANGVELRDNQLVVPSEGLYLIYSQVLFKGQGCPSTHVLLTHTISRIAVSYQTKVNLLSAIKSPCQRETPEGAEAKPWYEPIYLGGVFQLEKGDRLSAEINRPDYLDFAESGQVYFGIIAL

Binder | NGF Inhibition Assay EC50 (TF-1 cell proliferation) [1] [nM] | TNFα Neutralization Assay EC50 (L929 cells) [2] [nM] | Kd [3] [nM] | koff [3] [s⁻¹] | kon [3] [M⁻¹ s⁻¹] | Kd [4] [nM] | koff [4] [s⁻¹] | kon [4] [M⁻¹ s⁻¹]
DVD1477 (bispecific antibody, human IgG1, kappa, DVD-Ig; linker set 2; also called DVD1477H; DVD1477L) heavy: QVQLVESGGGVVQPGRSLRLSCAASGFTFSSYDMHWVRQAPGKGLEWVAVIWSDGSIKYYADSVKGRFTISRDNSKNTLYLQMNSLRAEDTAVYYCAREVESAMGGFYYNGMDVWGQGTTVTVSSASTKGPQVQLQESGPGLVKPSETLSLTCTVSGFSLIGYDLNWIRQPPGKGLEWIGIIWGDGTTDYNSAVKSRVTISKDTSKNQFSLKLSSVTAADTAVYYCARGGYWYATSYYFDYWGQGTLVTVSS[human IgG1 constant region left out here] light: DIQMTQSPSSLSASVGDRVTITCRASQGIRIDLGWYQQKPGKAPKRLIYAASTLQSGVPSRFSGSGSGTEFIFTISSLQPEDFASYYCLQHKSYPLTFGGGTKVEIKRTVAAPSVFIFPPDIQMTQSPSSLSASVGDRVTITCRASQSISNNLNWYQQKPGKAPKLLIYYTSRFHSGVPSRFSGSGSGTDFTFTISSLQPEDIATYYCQQEHTLPYTFGQGTKLEIKRTVAAPSVFIFPPSDEQLKSGTASVVCLLNNFYPREAKVQWKVDNALQSGNSQESVTEQDSKDSTYSLSSTLTLSKADYEKHKVYACEVTHQGLSSPVTKSFNRGEC | 0.038 | 0.009 | < 0.0063 | < 1e-06 | 160000 | 0.015 | 3.8e-05 | 2.5e+06
DVD1528 (bispecific antibody, human IgG1, kappa, DVD-Ig; linker set 3; also called DVD1528H; DVD1528L) heavy: QVQLQESGPGLVKPSETLSLTCTVSGFSLIGYDLNWIRQPPGKGLEWIGIIWGDGTTDYNSAVKSRVTISKDTSKNQFSLKLSSVTAADTAVYYCARGGYWYATSYYFDYWGQGTLVTVSSASTKGPSVFPLAPEVQLVESGGGLIQPGGSLRLSCAASGFTVSRNYMSWVRQAPGKGLEWVSVIYSGDRTYYADSVKGRFTISRDNSKNTLYLQMNSLRAEDTAVYYCARGEGGFDYWGQGTLVTVSS[human IgG1 constant region left out here] light: DIQMTQSPSSLSASVGDRVTITCRASQSISNNLNWYQQKPGKAPKLLIYYTSRFHSGVPSRFSGSGSGTDFTFTISSLQPEDIATYYCQQEHTLPYTFGQGTKLEIKRTVAAPEIVMTQSPATLSVSPGERATLSCRASQSVSSNLAWYQQKPGQAPRLLIHGASIRATGLPARFSGSGSGTEFTLTISSLQSEDFAVYYCQQYNYWWTFGQGTKVEIKRTVAAPSVFIFPPSDEQLKSGTASVVCLLNNFYPREAKVQWKVDNALQSGNSQESVTEQDSKDSTYSLSSTLTLSKADYEKHKVYACEVTHQGLSSPVTKSFNRGEC | 0.018 | 0.197 | 0.003 | 7.3e-06 | 2.4e+06 | 0.056 | 9.4e-06 | 170000
DVD1501 (bispecific antibody, human IgG1, kappa) heavy: QVQLKESGPGLVAPSQSLSITCTVSGFSLTDYGVNWVRQPPGKGLEWLGMIWGDGSTDYDSTLKSRLSISKDNSKSQIFLKMNSLQTDDTARYYCAREWHHGPVAYWGQGTLVTVSAASTKGPSVFPLAPQVQLQESGPGLVKPSETLSLTCTVSGFSLIGYDLNWIRQPPGKGLEWIGIIWGDGTTDYNSAVKSRVTISKDTSKNQFSLKLSSVTAADTAVYYCARGGYWYATSYYFDYWGQGTLVTVSS[human IgG1 constant region left out here] light: DIVMTQSHKFMSTTVGDRVSITCKASQAVSSAVAWYQQKPGQSPKLLIYWASTRHTGVPDRFTGSGSVTDFTLTIHNLQAEDLALYYCQQHYSTPFTFGSGTKLEIKRTVAAPDIQMTQSPSSLSASVGDRVTITCRASQSISNNLNWYQQKPGKAPKLLIYYTSRFHSGVPSRFSGSGSGTDFTFTISSLQPEDIATYYCQQEHTLPYTFGQGTKLEIKRTVAAPSVFIFPPSDEQLKSGTASVVCLLNNFYPREAKVQWKVDNALQSGNSQESVTEQDSKDSTYSLSSTLTLSKADYEKHKVYACEVTHQGLSSPVTKSFNRGEC |  | 0.195 |  |  |  |  |  | 
DVD1519 (bispecific antibody, human IgG1, kappa, DVD-Ig; linker set 3; also called DVD1519H; DVD1519L) heavy: QVQLVESGGGVVQPGRSLRLSCAASGFTFSSYDMHWVRQAPGKGLEWVAVIWSDGSIKYYADSVKGRFTISRDNSKNTLYLQMNSLRAEDTAVYYCAREVESAMGGFYYNGMDVWGQGTTVTVSSASTKGPSVFPLAPQVQLQESGPGLVKPSETLSLTCTVSGFSLIGYDLNWIRQPPGKGLEWIGIIWGDGTTDYNSAVKSRVTISKDTSKNQFSLKLSSVTAADTAVYYCARGGYWYATSYYFDYWGQGTLVTVSS[human IgG1 constant region left out here] light: DIQMTQSPSSLSASVGDRVTITCRASQGIRIDLGWYQQKPGKAPKRLIYAASTLQSGVPSRFSGSGSGTEFIFTISSLQPEDFASYYCLQHKSYPLTFGGGTKVEIKRTVAAPDIQMTQSPSSLSASVGDRVTITCRASQSISNNLNWYQQKPGKAPKLLIYYTSRFHSGVPSRFSGSGSGTDFTFTISSLQPEDIATYYCQQEHTLPYTFGQGTKLEIKRTVAAPSVFIFPPSDEQLKSGTASVVCLLNNFYPREAKVQWKVDNALQSGNSQESVTEQDSKDSTYSLSSTLTLSKADYEKHKVYACEVTHQGLSSPVTKSFNRGEC | 1.95 | 0.0079 | < 0.01 | < 1e-06 | 110000 | 0.02 | 4.2e-05 | 2.1e+06
DVD1486 (bispecific antibody, human IgG1, kappa) heavy: QVQLQESGPGLVKPSETLSLTCTVSGFSLIGYDLNWIRQPPGKGLEWIGIIWGDGTTDYNSAVKSRVTISKDTSKNQFSLKLSSVTAADTAVYYCARGGYWYATSYYFDYWGQGTLVTVSSASTKGPEVQLVESGGGLIQPGGSLRLSCAASGFTVSRNYMSWVRQAPGKGLEWVSVIYSGDRTYYADSVKGRFTISRDNSKNTLYLQMNSLRAEDTAVYYCARGEGGFDYWGQGTLVTVSS[human IgG1 constant region left out here] light: DIQMTQSPSSLSASVGDRVTITCRASQSISNNLNWYQQKPGKAPKLLIYYTSRFHSGVPSRFSGSGSGTDFTFTISSLQPEDIATYYCQQEHTLPYTFGQGTKLEIKRTVAAPSVFIFPPEIVMTQSPATLSVSPGERATLSCRASQSVSSNLAWYQQKPGQAPRLLIHGASIRATGLPARFSGSGSGTEFTLTISSLQSEDFAVYYCQQYNYWWTFGQGTKVEIKRTVAAPSVFIFPPSDEQLKSGTASVVCLLNNFYPREAKVQWKVDNALQSGNSQESVTEQDSKDSTYSLSSTLTLSKADYEKHKVYACEVTHQGLSSPVTKSFNRGEC | 0.076 | 0.363 |  |  |  |  |  | 
DVD1526 (bispecific antibody, human IgG1, kappa) heavy: EVQLQQSGPELVTPGASVKISCKASGYTFTDHYMSWVKQSHGKSLEWIGDINPYSGETTYNQKFKGTATLTVDKSSSIAYMEIRGLTSEDSAVYYCARDDYDASPFAYWGQGTLVTVSAASTKGPSVFPLAPEVQLVESGGGLIQPGGSLRLSCAASGFTVSRNYMSWVRQAPGKGLEWVSVIYSGDRTYYADSVKGRFTISRDNSKNTLYLQMNSLRAEDTAVYYCARGEGGFDYWGQGTLVTVSS[human IgG1 constant region left out here] light: DVQMIQSPSSLSASLGDIVTMTCQASQGTSINLNWFQQKPGKAPKLLIYGSSNLEDGVPSRFSGSRYGTDFTLTISSLEDEDLATYFCLQHSYLPYTFGGGTKLEIKRTVAAPEIVMTQSPATLSVSPGERATLSCRASQSVSSNLAWYQQKPGQAPRLLIHGASIRATGLPARFSGSGSGTEFTLTISSLQSEDFAVYYCQQYNYWWTFGQGTKVEIKRTVAAPSVFIFPPSDEQLKSGTASVVCLLNNFYPREAKVQWKVDNALQSGNSQESVTEQDSKDSTYSLSSTLTLSKADYEKHKVYACEVTHQGLSSPVTKSFNRGEC |  | 0.059 |  |  |  |  |  | 
DVD1484 (bispecific antibody, human IgG1, kappa) heavy: EVQLQQSGPELVTPGASVKISCKASGYTFTDHYMSWVKQSHGKSLEWIGDINPYSGETTYNQKFKGTATLTVDKSSSIAYMEIRGLTSEDSAVYYCARDDYDASPFAYWGQGTLVTVSAASTKGPEVQLVESGGGLIQPGGSLRLSCAASGFTVSRNYMSWVRQAPGKGLEWVSVIYSGDRTYYADSVKGRFTISRDNSKNTLYLQMNSLRAEDTAVYYCARGEGGFDYWGQGTLVTVSS[human IgG1 constant region left out here] light: DVQMIQSPSSLSASLGDIVTMTCQASQGTSINLNWFQQKPGKAPKLLIYGSSNLEDGVPSRFSGSRYGTDFTLTISSLEDEDLATYFCLQHSYLPYTFGGGTKLEIKRTVAAPSVFIFPPEIVMTQSPATLSVSPGERATLSCRASQSVSSNLAWYQQKPGQAPRLLIHGASIRATGLPARFSGSGSGTEFTLTISSLQSEDFAVYYCQQYNYWWTFGQGTKVEIKRTVAAPSVFIFPPSDEQLKSGTASVVCLLNNFYPREAKVQWKVDNALQSGNSQESVTEQDSKDSTYSLSSTLTLSKADYEKHKVYACEVTHQGLSSPVTKSFNRGEC |  | 0.219 |  |  |  |  |  | 
